# Experimental data as given in PubChem BioAssay AID651820 (National Center for Advancing Translational Sciences (NCATS), 2012).
# The whole screen tested about 340,000 compounds, of which about 12,000 (3.5%) were called active. Inconclusive results, whose numbers are uncertain, are shown with a selection of clear calls. Calls follow the shape of the dose curve; as a rule, active = well fitted inhibition curve with a large enough effect; inconclusive = small, poorly fitted or top-dose-only effect, or another doubt; inactive = no such curve, though single readings can be large or run the other way. Potencies of inconclusive entries are left out as doubtful fits.
# Assay: qHTS Assay for Inhibitors of Hepatitis C Virus (HCV)
# Conditions: Huh7.5.1 HCVcc-Cre (HCVcc is cell-culture hepatitis C virus) infection, luciferase reporter, 44 h; activity change, negative = inhibition: at 41.8 µM (top of the series)
# Method in brief: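 Reporter virus HCVcc-Cre (~0.5 moi) infects cells exposed to compound; seeding density 1,000 cells/well with 4 h settling beforehand. Luminescence, 15 sec read, taken 44 h post-infection following a 15 min RT substrate incubation.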
# % is scaled to controls: 0 for no effect and ±100 for the full control effect; potency is read from the fitted curve at half-maximal effect; tags tell the direction and shape of the fitted curve.
Compound,Potency,"activity change, negative = inhibition"
COc1ccc(-c2sc3ccc(OC)cc3c2C#Cc2ccccn2)cc1,"inconclusive [inhibitor, partial curve]",
COc1ccc(-c2nnn(CC(=O)N(Cc3cccs3)C(C)C(=O)NCCC(C)C)n2)cc1OC (configuration not stated),"inconclusive [inhibitor, full curve, poor fit]",
CC(c1ccco1)N(C(=O)COc1ccc(Cl)cc1Cl)c1ccccn1 (configuration not stated),"inconclusive [inhibitor, single point]",
COc1ccc(-c2cn(-c3ccccc3)c(=S)[nH]2)cc1OC,active: 10 µM,
Cc1ccc(S(=O)(=O)N2CCN(C(=O)N(c3ccccc3)c3ccccc3)CC2)cc1,"inconclusive [inhibitor, single point]",
COc1cc2c(cc1NC(=O)COC(=O)C(CCSC)NC(=O)c1ccccc1Cl)oc1ccccc12 (configuration not stated),"inconclusive [inhibitor, partial curve]",
Cn1cccc1/C=N\NC(=O)Cc1ccc(Br)c2ccccc12,active: 10 µM,
Nc1nnc(COc2ccc(Br)cc2Br)s1,,inactive: -26.3%
CCOc1ccc(NC(=O)CN(C)C(=O)COc2cccc(CC)c2)cc1OCC,"inconclusive [inhibitor, partial curve]",
COc1ccc(C(=O)NNC2=NC(C)(C)Cc3cc(C)c(C)cc32)cc1,"inconclusive [inhibitor, full curve]",
C/C(=N\Nc1cc(C(F)(F)F)ccc1Cl)c1ccccc1O,"inconclusive [inhibitor, partial curve]",
O=C(COc1ccccc1Cl)Nc1nc(-c2cccs2)cs1,"inconclusive [inhibitor, partial curve]",
CCCCN(CC)Cc1ccc(CNC(=O)Nc2ccc(OCC)cc2)o1,active: 12.6 µM,
Cc1cc(C)c(NC(=O)C2CCCN(S(=O)(=O)c3c(C)noc3/C=C/N(C)C)C2)c(C)c1 (configuration not stated),,inactive: 4.29%
O=C(Nc1cccc(S(=O)(=O)Nc2ccc(Cl)cc2)c1)c1ccc2c(c1)OCCO2,"inconclusive [inhibitor, full curve]",
Oc1ccc(/C=N/Nc2ncc(Br)cn2)c(O)c1,"inconclusive [inhibitor, single point]",
CC12CC(NC(=O)N1CCc1ccccc1)c1ccccc1O2 (configuration not stated),"inconclusive [inhibitor, single point]",
Fc1ccccc1N1CC(c2ccccc2)C(c2cccs2)=N1 (configuration not stated),"inconclusive [inhibitor, single point]",
Cc1cc(C)c(C)c(OCCCCN(C)Cc2ccccc2)c1,,inactive: 0.191%
O=C(O)CCCCCNC(=O)OCC1c2ccccc2-c2ccccc21,"inconclusive [inhibitor, single point]",
c1ccc(Nc2cccc(Nc3ccccc3)n2)cc1,active: 7.08 µM,
ClCCN(CCCl)c1ccc(C=Cc2ccncn2)cc1,"inconclusive [inhibitor, partial curve, poor fit]",
CC(=O)C1=C(O)C(=O)N(c2ccc(Br)cn2)C1c1ccccc1F (configuration not stated),,inactive: 10.9%
Fc1ccc(Nc2nc(Oc3ccccc3F)nc(N3CCCC3)n2)cc1,"inconclusive [inhibitor, single point]",

Compound,Potency,"activity change, negative = inhibition"
CCOC(=O)c1ccc(NC(=O)c2ccc(CN3CCOCC3)cc2)cc1,"inconclusive [inhibitor, partial curve]",
Cc1cc(Cn2nc(-c3ccccc3C)cc2C(=O)O)on1,"inconclusive [inhibitor, partial curve, poor fit]",
O=C1NC(=Nc2ccccc2)S/C1=C\c1cccs1,,inactive: -3.39%
C=CCN(C(=O)c1cccc(C(F)(F)F)c1)C1(C(=O)Nc2ccccc2)CCN(C(C)C)CC1,"inconclusive [inhibitor, single point]",
COC(=O)c1c(S(=O)(=O)N2CCOCC2)c(C)n(C)c1C,,inactive: 3.8%
O=C(c1ccc2nc(N3CCCCC3)sc2c1)N1CCN(Cc2ccc3c(c2)OCO3)CC1,"inconclusive [inhibitor, single point]",
N/C(=N\OC(=O)CC1CCCCC1)c1ccncc1,,inactive: 7.82%
CN1CCN(c2ccc([N+](=O)[O-])c(N/N=C3\CN4CCC3CC4)c2)CC1,"inconclusive [inhibitor, single point]",
COCCN1C=C(C(=O)OC)C(c2ccc(OC)c(OC)c2)C(C(=O)OC)=C1,"inconclusive [inhibitor, single point]",
CSc1cc(/C=N/O)c(SC)s1,active: 10 µM,
COc1ccccc1CNC(=O)c1cccc(S(=O)(=O)N2CCN(C)CC2)c1,,inactive: 17.3%
O=C(Cc1noc2ccccc12)Nc1ccccn1,,inactive: 14.5%
COc1cc(NC(=O)CN(C)S(=O)(=O)c2ccc(-c3ccc(=O)[nH]n3)s2)cc(OC)c1,,inactive: 10.9%
Cc1ccc(-n2nc(C)c3c(C)c(CCC(=O)NCC4CCCO4)c(=O)n(C)c32)cc1 (configuration not stated),,inactive: -25.7%
CSC1=NC(C)(C)C=C(/C=C/c2ccc(Cl)cc2)N1,active: 8.91 µM,
Cc1ccc(Cn2c(=O)n(C)c(=O)c3sccc32)cc1,"inconclusive [inhibitor, single point]",
CCCNC(=O)Nc1ccc(C(F)(F)F)cc1,"inconclusive [inhibitor, single point]",
COC(=O)c1ccc(NC(=O)Nc2ccc(F)c(Cl)c2)cc1,active: 11.2 µM,
Cc1ccc(NC(=O)c2cc(N3CCOCC3)nc3ccccc23)cc1,"inconclusive [inhibitor, partial curve]",
Cc1cc(OCc2cc(C(=O)NCCN3CCCCC3CO)no2)cc(C)c1Cl (configuration not stated),active: 8.91 µM,
COc1cn(-c2ccccc2)nc1C(=O)Nc1ccc(C)cc1Cl,"inconclusive [inhibitor, partial curve]",
COC(=O)C1=C(C)N(c2ccccc2)/C(=C/c2ccco2)C1=O,,inactive: -15%
CCCNC(=O)c1ccc(N2CCC3(CC2)CC(c2ccc(Cl)cc2)=NO3)c([N+](=O)[O-])c1,"inconclusive [inhibitor, single point]",
